Data taken from the supplement of paper PMC10986608.
Some of the results follow. Most values come without repeats; read them as rough.

These compounds were tested on Candida albicans DPL-15 (assay: growth (OD600) after compound treatment (apparently relative to screen median) (relative growth (fraction; screen median 1.02)); DPL-15 is a caspofungin-resistant clinical isolate; higher = more fungal growth (less antifungal activity)). Settings: 25 µM; RPMI 1640; 48 h; 30 °C.

| Compound | growth |
| --- | --- |
| CC(C)(C)Oc1cccc(-c2ccccc2)n1 | 1.04 |
| CCCCCOS(=O)(=O)Nc1ccc2sccc2c1 | 0.938 |
| C[Si](C)(C)C#CCOc1c(-c2ccccc2)oc2ccccc2c1=O | 0.961 |
| CO[C@@H]1[C@H](O)CC[C@]2(O)CN(c3cccc(C#N)c3)[C@@H](CC=C(C)C)[C@](C)(O)[C@@H]12 | 0.909 |
| COc1ccc(N2C(=O)c3c(c(C)nn3C)C2c2ccccc2)cc1 (configuration not stated) | 0.98 |
| COc1ccc(C[C@H](CO)[C@@H](CO)Cc2ccc(OC)cc2)cc1 | 1.05 |
| C=CCN1C(=O)CC[C@@]23C1=NC(C(=O)OC)=C(C(=O)OC)[C@@H]2N(CC#CC)c1ccccc13 | 0.918 |
| CS(=O)(=O)Oc1c(C[C@@]23CCCCC2=Nc2ccc(C(F)(F)F)cc23)occc1=O | 1.17 |
| COc1ccc(CCn2ccc3nc4cc(O)cc(O)c4c(=O)n32)cc1 | 1.21 |
| CC(C)Cc1n[nH]c2c1C(c1ccccc1Cl)N(c1ccc(-n3ccnc3)cc1)C2=O (configuration not stated) | 0.989 |
| COC(=O)Cc1nnn2c1[C@H](C)[C@@H](OC)C2 | 1.23 |
| CCc1ccccc1-n1nc(CC(C)C)c2c1C(=O)NC2c1ccc(F)cc1 (configuration not stated) | 1.01 |
| O=C1C=C(c2ccccc2)CC1c1ccc([N+](=O)[O-])cc1 (configuration not stated) | 0.987 |
| COc1cc([C@H]2c3c(OC)c(O)c4[nH]c5ccccc5c(=O)c4c3[C@@H]3C=C(C)CC(C)(C)[C@H]23)c2c(=O)c3ccccc3[nH]c2c1O | 0.916 |
| [NH3+]c1nc2cnncc2[nH]1 | 1.01 |
| CC(C)Cc1nn(-c2ccc(F)cc2)c2c1C(c1ccc(Br)cc1)NC2=O (configuration not stated) | 1.09 |
| COC(=O)C/C=C/[C@H](C)[C@@H](NC(=O)[C@H](NC(=O)OC(C)(C)C)C(C)C)c1ccccc1 | 1.06 |
| COc1ccc([C@H]2OC[C@H](Cc3ccc4c(c3)OCO4)[C@@H]2CO)cc1OC | 1.03 |
| CCOc1cc2c(cc1OCC)CN(CCc1ccc(NC(=O)c3cccc4c(=O)c5cccc(OC)c5[nH]c34)cc1)CC2 | 1.05 |
| CC(=O)C1=C(C)NC(=O)NC1c1cccs1 (configuration not stated) | 0.941 |
| COc1ccc2c(c1)C[C@H](C)O[C@@]21C(=O)Nc2ccccc21 | 0.862 |

| Compound | growth |
| --- | --- |
| COc1ccc([C@@]23Oc4cc(OC)cc(OC)c4[C@]2(O)[C@H](O)[C@H](C(=O)N(C)C)[C@H]3c2ccc(O)c(OC)c2)cc1 | 1.26 |
| COC(=O)C1(c2ccccc2)C=CC=C(OC)C=C1 (configuration not stated) | 1.2 |
| CCNC(=O)[C@H]1[C@H](C(=O)NCC)[C@@H](c2ccc(OC)c(OC)c2OC)[C@@H]1c1ccc(OC)c(OC)c1OC | 0.922 |
| CC(C)C1=NCCN(C)C2=C1C(c1ccc(F)cc1)N(c1ccccc1)C2=O (configuration not stated) | 1.02 |
| Cc1ccc(S(=O)(=O)Oc2c(CC3(C)C(c4ccccc4)=Nc4ccc(F)cc43)occc2=O)cc1 (configuration not stated) | 1.01 |
| Cc1nn(C)cc1Nc1cc(O)cc(O)c1C(=O)N1CC[C@@H](F)C1 | 1.09 |
| C=CCN1C(=O)c2[nH]nc(COC)c2C1c1cccc(C(F)(F)F)c1 (configuration not stated) | 1.02 |
| CC(C)=CC[C@H]1C[C@@]23C[C@H](CC=C(C)C)C(C)(C)[C@@](CC=C(C)C)(C(=O)C(C(=O)c4ccccc4)=C2OC1(C)C)C3=O | 1.08 |
| CC(C)(C)NS(=O)(=O)OCCCCCO[Si](C)(C)C(C)(C)C | 1.09 |
| CC1(Cc2occc(=O)c2OS(C)(=O)=O)C(c2ccccc2)=Nc2ccc(F)cc21 (configuration not stated) | 1.03 |
| COC(=O)[C@@]12Oc3cccc(O)c3C(=O)C1=C(O)C[C@H](C)[C@H]2O | 1.12 |
| O=C1NC(c2ccccc2)c2c1nn(-c1ccccc1)c2-c1ccccc1 (configuration not stated) | 0.925 |
| O=C(NCc1nnc(-c2ccccc2)c(-c2ccccc2)n1)OCc1ccccc1 | 0.836 |
| CC(C)CCCC(C)CCN(C(=O)OC(C)(C)C)S(=O)(=O)NCC(F)(F)F (configuration not stated) | 1.04 |
| [NH3+]c1nc2nccnc2[nH]1 | 1.07 |
| COc1ccc(N2C(=O)C3=C(C(C)=NCCN3)C2c2cccc(C(F)(F)F)c2)cc1 (configuration not stated) | 0.917 |
| COc1ccc(N2C(=O)c3[nH]nc(CC(C)C)c3C2c2ccncc2)cc1 (configuration not stated) | 0.85 |
| O=S(=O)(Nc1ccc(C(F)(F)F)cc1)OCCCc1ccccc1 | 0.828 |
| Cc1ccc2[nH]c3nc(CCCn4ccnc4-c4ccccc4)nnc3c2c1 | 1.01 |
| Nc1ccc(CC(=O)N2Cc3ccccc3C2)cc1 | 1.13 |
| CC1=NCCNC2=C1C(c1ccc(Br)cc1)N(c1ccccc1)C2=O (configuration not stated) | 1.08 |

| Compound | growth |
| --- | --- |
| COc1cc(N2C(=O)c3[nH]nc(CC(C)C)c3C2c2ccccc2Cl)cc(OC)c1OC (configuration not stated) | 1.16 |
| CN1CCN=C(c2ccccc2)C2=C1C(=O)NC2c1ccccc1 (configuration not stated) | 0.947 |
| COc1ccc([C@]23[C@H](c4ccccc4)C[C@@H](O)[C@@]2(O)c2c(F)cccc2N3C)cc1 | 1.07 |
| COC(=O)[C@@H]1[C@@H](c2ccccc2)[C@]2(c3ccc(OC)cc3)Oc3cc(OC)cc(OC)c3[C@@]23NC(c2cccnc2)=N[C@@]13O | 1.21 |
| O=CNCCc1ccc(O)c(O)c1 | 0.893 |
| O=c1c(O)c(-c2ccc(N3CCOCC3)cc2)[nH]c2ccccc12 | 0.234 |
| COc1ccc(C2=C[C@@]3(c4ccc(OC)cc4)[C@@H]4C(=O)[C@](C)(O)[C@@H](C=C4C(C)C)[C@H]3C2=O)cc1 | 1.07 |
| CC(C)Cc1n[nH]c2c1C(c1cccc(C(F)(F)F)c1)N(CCN1CCCC1)C2=O (configuration not stated) | 1.07 |
| C#CCC(C)(C)CNC(=O)CC1(CNC(=O)c2cccc(-c3ccccc3/C=N/NS(=O)(=O)c3ccc(C)cc3)c2)CCCCC1 | 1.04 |
| COc1cc2c(cc1OC)[C@@H]1O[C@](CCN3C(=O)c4ccccc4C3=O)(C2)OC2=C1C(=O)CC(C)(C)C2 | 0.891 |
| Nc1c(-c2ccccn2)cnc2c(-c3ccc(Cl)cc3)cnn12 | 1.11 |
| COC(=O)[C@]1(C)CCC[C@@]2(C)[C@H]1CC=C1[C@@H](O)[C@](O)(C(C)C)CC[C@@H]12 | 0.933 |
| C=CCOC(=O)c1c2n[nH]c1-c1cccc(c1)C(=O)NCC1(CCCCC1)CC(=O)NCCC2 | 1.13 |
| COc1ccc(-c2oc(-c3ccc4c(c3)OCO4)c(CO)c2CO)cc1OC | 1.06 |
| CO[C@@H]1[C@H](O)CC[C@]2(O)CN(Cc3cccc4ccccc34)[C@@H](CC=C(C)C)[C@](C)(O)[C@@H]12 | 1.03 |
| C=CCN1C(=O)C2=C(C(CC(C)C)=NCCN2C)C1c1ccccc1 (configuration not stated) | 1 |
| CCN1C(=O)N[C@@H](c2ccco2)C(C(=O)OC)=C1C | 0.988 |
| CC(C)CC1=NCCNC2=C1C(c1ccc(Br)cc1)NC2=O (configuration not stated) | 0.997 |
| O=C1Nc2cc(F)ccc2C1(c1ccc2c(c1)CCO2)c1ccc2c(c1)CCO2 | 0.779 |
| CC(=O)N[C@@H]1CCN(C(=O)c2c(O)cc(O)cc2Nc2ccnn2C)C1 | 1.07 |
| CC(=O)OC[C@H]1O[C@H](C#Cc2ccccc2F)C=C[C@H]1OC(C)=O | 0.862 |

| Compound | growth |
| --- | --- |
| CCc1ccccc1-n1nc2c(c1C(C)C)C(c1ccccc1)NC2=O (configuration not stated) | 1.07 |
| CC1=NCCN(C)C2=C1C(c1ccc(F)cc1)N(c1ccccc1)C2=O (configuration not stated) | 1.04 |
| COc1ccc(Cn2nc(C3CC3)cc2Nc2cc(O)cc(O)c2C(=O)N2Cc3cn[nH]c3C2)cc1 | 0.965 |
| CC(C)(C)[Si](C)(C)OCC1=C(c2cc3c4c(ccc5c4c2OCO5)OCO3)C(=O)[C@@H]2O[C@]2(C)[C@@H]1O | active: 0.0132 |
| C=CC[C@@]12O[C@@H]1C1(OCCCO1)C(CO)=C(Br)C2=O | 0.936 |
| COc1ccc([C@@H]2[C@@H](C(=O)NCC3CC3)[C@H](C(=O)NCC3CC3)[C@H]2c2ccc(OC)c(OC)c2OC)c(OC)c1OC | 1.36 |
| CC1=NCCNC2=C1C(c1ccc(C)cc1)N(c1ccccc1)C2=O (configuration not stated) | 0.888 |
| COC(=O)C1=C(C)N(C)C(NCc2ccc3c(c2)OCO3)=NC1c1cccc(F)c1 (configuration not stated) | 0.853 |
| C=CCN1C(=O)C2=C(C(c3ccccc3)=NCC(C)(C)N2)C1c1ccc(Br)cc1 (configuration not stated) | 1.05 |
| CN(Cc1ccccc1)C(=O)c1c(O)cc(O)cc1CC(=O)c1ccccc1 | 0.926 |
| CC(=O)C1=C2C=CCCN2C(=O)NC1c1cc(F)ccc1[N+](=O)[O-] (configuration not stated) | 0.906 |
| Cc1ccc(C2NC(=O)c3c2c(-c2ccccc2)nn3-c2cc(C)cc(C)c2)cc1 (configuration not stated) | 0.921 |
| COc1ccc(CCN2C[C@@]3(O)CC[C@@H](O)[C@@H](OC)[C@@H]3[C@@](C)(O)[C@@H]2CC=C(C)C)cc1OC | 1.09 |
| COc1ccc(C[C@H]2COC(=O)[C@@H]2Cc2ccc(OC)cc2)cc1 | 0.798 |
| COc1ccc(-c2cnc3c(-c4ccncc4)cnn3c2N)cc1 | 1.28 |
| COc1cc(OC)c2c(c1)oc(=O)c1c(O)ccc(O)c12 | 1.05 |
| Cn1nccc1Nc1cc(O)cc(O)c1C(=O)N1CC[C@H](F)C1 | 1.06 |
| C=CCOC(=O)C1(C#CC(=C)C)CCCCC1=O (configuration not stated) | 1.06 |
| C#CCC(C)(C)CNC(=O)[C@@H]1C[C@@H](O)CN1C(=O)c1cccc2cnnn12 | 1.06 |
